Drawing on PubChem BioAssay AID463173 (ICCB-Longwood Screening Facility, Harvard Medical School, 2010), this text covers survival for 88 compounds.

Among all 52,000 compounds or so, about 1,700 (3.3%) were called active. Cut-off read from the data, not from the text of the source: active = survival mostly below about 52% (no sharp cut-off); inactive = mostly above about 56%. The list shows a part of the results.

The subject of this assay is Wild type. As to the kind of experiment: growth inhibition of S. aureus wild type versus tarO mutant, primary screen, teichoic acid synthesis inhibitors, RN4220, OD600 (AID 463173). The settings on record: S. aureus RN4220 wild type/DeltatarO growth, OD600, 18 h, active compounds read low, screened at 18.75 µg/mL (by protocol).
Consider `CCOc1ccc(CCNC(=O)c2cc(=O)[nH]c3ccc(S(=O)(=O)N4CCCCC4)cc23)cc1OCC`, for which the survival was inactive: 89%.

`CCOC(=O)c1cccc(NC(=O)N2CCC(CN3CCc4ccccc4C3)CC2)c1`: the survival was inactive: 71%.

For `Cc1ccccc1OCC(=O)Nc1ccc(OCc2cc(=O)n3ccsc3n2)cc1`, the survival was inactive: 92%. `O=C(Cc1ccc(F)cc1)NCc1nc2cccnc2n1Cc1ccc(F)cc1`: the survival was inactive: 87%.

For `FC(F)(F)c1cccc(N2CCN(Cc3nnc(-c4ccc5c(c4)OCO5)o3)CC2)c1`, the survival is inactive: 65%. `Cc1ccccc1C(=O)Nc1ccc2nc(Nc3cccc(C(F)(F)F)c3)cc(C)c2c1`: the survival is inactive: 45%. With `CCOc1ccc(S(=O)(=O)c2c[nH]c3ccccc3c2=O)cc1`, the survival is inactive: 80%. In the case of `COc1ccc(CCNC(=O)C2CCN(c3ncnc4c3nc3n4CCCCC3)CC2)c(OC)c1`, the survival was inactive: 99%. With `CCOC(=O)c1cccc(NC(=O)N2CC(CC)Sc3ccccc32)c1` (stereo not drawn), the survival is inactive: 84%. For the compound `COc1cccc(-c2nc(SCC(=O)NCC3CCCO3)c(-c3ccc(F)cc3)[nH]2)c1` (stereo not drawn), the survival was inactive: 106%. Consider `NS(=O)(=O)c1ccc(CCNC(=O)c2ccc3nc(Cc4ccccc4)oc3c2)cc1`, for which the survival was inactive: 81%.

On to `CC(C)(C)C1CCc2c(sc(NC(=O)CCC(=O)O)c2C(=O)Nc2ccccc2C(F)(F)F)C1` (stereo not drawn), for which the survival was active: 1%. As for `CCCc1cc(=O)oc2cc(C)c3c(-c4cccc(OC)c4)coc3c12`, the survival was inactive: 74%. As to `CC1CCCN(Cc2nc3c(c(=O)n(C)c(=O)n3C)n2Cc2ccc(Cl)cc2Cl)C1` (stereo not drawn), the survival was inactive: 87%.

As to `COc1cccc(CNC(=O)c2ccc(-c3nc(CS(=O)(=O)c4ccccc4)c(C)o3)cc2)c1`, the survival is inactive: 64%. With `COC(=O)c1ccc2c(=O)n(CCCCCC(=O)N3CCN(c4cc(Cl)ccc4C)CC3)c(=O)[nH]c2c1`, the survival was inactive: 152%. Take `NC(=O)C1CCN(Cc2nc3ccccc3c(=O)[nH]2)CC1`: the survival was inactive: 108%. For `Cc1cc(C)cc(-n2nnc(-c3nsc(NC(=O)c4ccccc4Cl)n3)c2C)c1` the value was inactive: 49%.

Take `CCc1ccc(NC(=O)Cn2ncc3c(C)n(Cc4cccc(Cl)c4)c(C)c3c2=O)cc1`: the survival is inactive: 86%. Turning to `Cc1cc(C(F)(F)F)nc(SCC(=O)Nc2c(C)n(C)n(-c3ccccc3)c2=O)n1`, the survival is inactive: 102%. For `CN(C)CCNC(=O)CN1C(=O)CCn2nc(-c3cn(C)c4ccccc34)cc21`, the survival was inactive: 72%.

Regarding `O=C(Nc1ccc(C(F)(F)F)cc1)C1CCCN(S(=O)(=O)c2cccc3cccnc23)C1` (stereo not drawn), the survival was inactive: 87%. Turning to `CC(=O)Nc1ccc(S(=O)(=O)NCc2ccc(C(=O)NCc3ccc(Cl)cc3)cc2)cc1`, the survival was inactive: 86%. The result for `COc1ccc(CCNC(=O)c2cnc3sc(N4CCC(C)CC4)nn3c2=O)cc1OC` reads inactive: 83%; that for `O=C(Nc1cccc(C(=O)N2CCN(c3ccccc3F)CC2)c1)c1nsc2ccccc12`, inactive: 67%; that for `COc1ccccc1Nc1c2c(nc3ccc(NC(=O)c4cccc(OC)c4OC)cc13)CCCC2`, inactive: 43%. Regarding `COC(=O)c1cc2sccc2n1Cc1nc(-c2cccc(Br)c2)oc1C`, the survival is inactive: 79%. For `CCN(c1ccc(OC)cc1)S(=O)(=O)c1nnc(NC(=O)c2ccccc2C)s1`, the survival is inactive: 56%. For `CCC1CCCCN1C(=O)CSc1n[nH]c(-c2ccccc2Cl)n1` (stereo not drawn), the survival was inactive: 73%.

For `CCOc1ccc(NC(=O)Cn2c(=O)n(CC3CCCO3)c(=O)c3ccccc32)cc1` (stereo not drawn), the survival is inactive: 96%.

Turning to `CCc1ccc(-n2nc(C)c3c(C)cc(=O)n(CC(=O)NCc4ccc(C)cc4)c32)cc1`, the survival is inactive: 83%.

On to `CCc1ccc(NC(=O)CSc2nc(C)cc(COC)c2C#N)cc1`, for which the survival is inactive: 75%. For the compound `CCCCCCc1cc2cc(-c3nnc(-c4ccc(C)cc4)o3)c(=O)oc2cc1O`, the survival is inactive: 149%. Take `CCc1nc2ccccc2c(NC(=O)CN(CC)CC)c1C`: the survival is inactive: 122%. Turning to `CC(C)CCNc1nc2c(S(=O)(=O)c3ccc(Br)cc3)nnn2c2ccsc12`, the survival was inactive: 118%. For `O=C(NCc1cccnc1)C(=O)NCC(c1cccnc1)N1CCN(c2ccccc2)CC1` (stereo not drawn) the value was inactive: 90%.

Take `CCc1cc2c(cc3c(=O)n(CC(=O)N4CCN(c5cc(Cl)ccc5C)CC4)nc(CC)n32)s1`: the survival was inactive: 85%. For the compound `O=C(NCc1ccccc1)C1CCN(C(=O)c2cnn(-c3ccccc3)c2-n2cccc2)CC1`, the survival is inactive: 134%. For `C=Cc1ccc(Cn2c(=O)n(-c3ccc(C)cc3)c(=O)c3c2c2cc(OC)ccc2n3C)cc1` the value was inactive: 85%; for `COc1ccc2cc(C(=O)NCc3ccc4c(c3)CCN4C(=O)c3ccc(C)cc3)[nH]c2c1`, inactive: 84%; for `CCOc1ccc2nc(N3CCCC(C(=O)NCc4ccccc4Cl)C3)sc2c1` (stereo not drawn), inactive: 67%. On to `CC(=O)Nc1nnc(SCc2cc(=O)c3cccc(C)c3[nH]2)s1`, for which the survival was inactive: 90%. With `CC1=C(C(=O)Nc2ccc(C)cc2C)C(c2cccn2C)n2ncnc2N1` (stereo not drawn), the survival was inactive: 63%.

On to `COc1ccc(CCNC(=O)CCCCCn2c(=O)[nH]c3cc(OC)c(OC)cc3c2=O)cc1OC`, for which the survival was inactive: 93%. Turning to `Cc1ccc(C)c(Cn2c(C)c(CNCc3ccc(F)cc3)c(C(=O)O)c2C)c1`, the survival was inactive: 85%. In the case of `Cc1ccc2c(c1)c(=O)c(C(=O)c1ccncc1)cn2CC(=O)Nc1ccccc1Cl`, the survival was inactive: 76%. For the compound `CSc1nnc(COc2ccc(Br)cc2)n1Cc1ccccc1`, the survival is inactive: 112%. Consider `CCc1ccc(C2=CC(c3cccc(Br)c3)n3nnnc3N2)cc1` (stereo not drawn), for which the survival was inactive: 81%.

For the compound `CC(C)C(=O)Nc1cccc(NC2=NS(=O)(=O)c3ccccc32)c1`, the survival was inactive: 82%.

In the case of `CCOC(=O)c1cccc(NC(c2nnc(-c3ccccc3)o2)c2ccccc2F)c1` (stereo not drawn), the survival is inactive: 87%. For `Cc1ccc(C)c(N2CCN(c3nc4ccccc4c4nc(-c5cccnc5)nn34)CC2)c1`, the survival was inactive: 82%.

As for `CCc1ccc(NC(=O)Cn2c(=O)oc3cc(S(=O)(=O)NCc4ccccc4)ccc32)cc1`, the survival is inactive: 132%. With `Cc1ccc(CNC(=O)C2CCCN(c3nnc(-n4c(C)ccc4C)s3)C2)cc1` (stereo not drawn), the survival was inactive: 69%. Turning to `COc1ccc(NC(=O)CSc2nc(O)c(C/C=C/c3ccccc3)c(=O)[nH]2)cc1`, the survival was inactive: 68%.

For the compound `COc1ccccc1CNC(=O)CCC1N=C2c3ccccc3N=C(SCc3ccccc3Cl)N2C1=O` (stereo not drawn), the survival was inactive: 22%. For `CCSc1nc(-c2ccc(Cl)cc2)nc2c1Cc1c(CO)cnc(C)c1O2` the value was inactive: 76%; for `O=S(=O)(c1ccc(Br)cc1)N1CCOCC1`, inactive: 109%.

For `CCOC(=O)c1ccc(NC(=O)CCn2cnnn2)cc1`, the survival was inactive: 78%.

With `CC1(C)CC(NC(=O)C2CCCCC2)CC(C)(C)N1`, the survival was inactive: 92%. On to `COC(=O)c1cnc(N2CCN(c3ccccc3OC)CC2)c2ccccc12`, for which the survival was inactive: 78%. Take `CCOC(=O)c1sc2ccccc2c1S(=O)(=O)NCc1ccc(F)cc1`: the survival is inactive: 75%. With `COc1ccc(-c2cc(C(F)(F)F)n3nc(C(=O)Nc4cccc(C(F)(F)F)c4)c(Br)c3n2)cc1`, the survival was inactive: 76%. The result for `CC1=C(c2ccc(Cl)cc2)S(=O)(=O)N=C1N1CCN(c2cccc(C(F)(F)F)c2)CC1` reads inactive: 79%; that for `O=C(Cn1cnc2ccccc2c1=O)Nc1ccccc1`, inactive: 106%; that for `O=C(NCc1ccccc1Cl)c1ccc(CSCc2cccc(F)c2)o1`, active: -1%. For `C=CCN1C(=O)C(C)(C)N(C(C)=O)c2ccccc21` the value was inactive: 121%; for `Cc1ccc(-n2nnnc2CNC(=O)c2ccccc2F)cc1C`, inactive: 94%; for `Cc1ccc(NC(c2nnc(-c3ccccc3)o2)c2ccccc2F)c([N+](=O)[O-])c1` (stereo not drawn), inactive: 119%. Take `CC(C)(C)NC(=O)C1C2CCCCC21` (stereo not drawn): the survival is inactive: 111%. For the compound `CCn1c(-c2ccc(C(C)(C)C)cc2)n[nH]c1=S`, the survival was inactive: 116%. In the case of `O=C(Cn1cnc2c(cnn2-c2ccccc2)c1=O)c1ccccc1`, the survival is inactive: 106%.

Consider `O=C(Nc1c(C(=O)Nc2cccc(C(F)(F)F)c2)oc2ccccc12)c1cc(=O)c2ccccc2o1`, for which the survival is inactive: 85%. For `O=C(O)CCn1cnc2onc(-c3ccccc3Cl)c2c1=O`, the survival was inactive: 81%. Take `Cc1cccn2c(=O)cc(COc3ccc(NC(=O)c4cccc(F)c4)cc3)nc12`: the survival was active: -1%. `CCC1CCCCN1C(=O)Cn1c(=O)n(CCCCCC(=O)NCc2ccc(F)cc2)c(=O)c2sccc21` (stereo not drawn): the survival was inactive: 138%.

For the compound `CCn1c(=O)c2cc(C(=O)NCCCN(C)Cc3ccccc3)sc2c2ccccc21`, the survival was inactive: 86%. With `CCc1cccc(NC(=O)Cn2cc(C(=O)c3ccncc3)c(=O)c3cc(C)c(C)cc32)c1`, the survival is inactive: 135%. For `Cn1nnc2cc(C(=O)N(CCO)c3ccccc3)ccc21` the value was inactive: 115%; for `O=C(NCc1ccc(Cl)cc1)c1ccc2c(c1)NC(=O)C(CS(=O)(=O)Cc1ccccc1Cl)N2` (stereo not drawn), inactive: 74%. Regarding `CCOc1ccc(NC(=O)CCS(=O)(=O)c2ccc(Br)s2)cc1`, the survival is inactive: 76%. On to `Cc1cccc(NC(=O)CN2C(=O)COc3ccc(S(=O)(=O)N4CCC(C)CC4)cc32)c1C`, for which the survival is inactive: 101%. The result for `CCN(CC)CCCNC(=O)c1nn(-c2ccc(OC)c(Cl)c2)c(=O)c2c1c1ccccc1n2C` reads inactive: 80%; that for `Cn1nnnc1SCCNCc1ccc(OCc2ccccc2)cc1`, inactive: 74%. For `COC(=O)c1sccc1S(=O)(=O)N(CC(=O)NCc1ccccc1)c1ccc(C)c(C)c1`, the survival is active: 14%. For `COc1ccc(NC(=O)CSc2nnc3scc(-c4ccc(Cl)cc4)n23)cc1`, the survival was inactive: 131%. As for `CCOC(=O)c1c(C)c(-c2ccccc2)n(CC(=O)Nc2cccc(F)c2)c1C`, the survival is inactive: 90%. With `O=C(Nc1noc2ccccc12)c1c(F)cccc1F`, the survival is inactive: 81%. The result for `Cc1ccc(N2CCN(S(=O)(=O)N3CCOCC3)CC2)cc1Cl` reads inactive: 99%.
